Results taken from the supplement of paper PMC11417369.
± gives the standard deviation of the averaged measurements. This is one part of the list.

Test system: PfAP2-EXP AP2 domain (GST-tagged)
Assay: gcPBM binding intensity (ln(normalized median fluorescence intensity)); higher = stronger DNA binding
Procedure, shortened: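 Binding intensity values are the highest Masliner-normalised natural-log median intensity among replicate spots of either probe orientation. The binding step lasted 1 h in 1× PBS with 1% milk, 0.2 mg/ml BSA, 0.5% salmon testes DNA and 0.03% Triton X-100, using GST-tagged P. falciparum DNA-binding domains expressed in E. coli on an Agilent 4 × 180k array of primer-extended double-stranded 36-bp intergenic genomic probes plus negative controls. Alexa488 anti-GST antibody and a 488 nm scan detected bound protein.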

Row | Sequence | gcPBM binding intensity (ln)
1 | GTTAAAATTGGGGACGCATGTTCCTTTCCTTTTTTT [TGCATGCA_site1002] | 8.55 ± 0.31
2 | AATATATGTATATATTTTTTTTTTTCCCTTACAAAT [GTGCAC_negctrl_site428] | 8.12 ± 0.55
3 | TTATAAATGTAACGATGTACTTTTAAAAGTTTCCTT [XGTACX_site109] | 8.36 ± 0.38
4 | GGAATGGTACATGATACACACACGCACATATATATA [CACACA_site5825] | 8.85 ± 0.47
5 | TATATTAAACAATATACACACATTAATGTATACATA [CACACA_site2755] | 8.47 ± 0.42
6 | AAAAAAAAAAAAAAAACACACAGAACAATATATAAA [CACACA_site4698] | 8.73 ± 0.38
7 | TTTTTTATAAAATTTTTTTTTTAAAATATTAAAACT [XGTACX_negctrl_site240] | 7.89 ± 0.47
8 | AAGCTATATATAGGCAGTACTTTGTAAGTGTAGATA [XGTACX_site8365] | 8.83 ± 0.37
9 | ATATGTCACTTGTATACACACATATAGATTTCAATC [CACACA_site7519] | 9.19 ± 0.66
10 | TTTCTAATTCTTAGTGGTACACAGTTCTGCTGATAT [XGTACX_site2391] | 8.34 ± 0.42
11 | TATATGCATATACATACACACATAACACATACGTTT [CACACA_site3832] | 8.71 ± 0.43
12 | TATTTGTTGTGAGTCACACATATATATATATATATA [CACACA_site4240] | 10.3 ± 0.42
13 | TTTTCATAAAATCATTGTACATTTATCGTATATTAA [XGTACX_site3855] | 8.46 ± 0.4
14 | ATATTGTAAGTAAACACACACACATATATATGTATA [CACACA_site8124] | 8.61 ± 0.49
15 | AAAATATCTTATATATGTACATATTTATATTTATAT [XGTACX_site6027] | 8.46 ± 0.35
16 | TTGTTTTTTTTTGGCTGTACGTTCATAAATTTTTTT [XGTACX_site4165] | 8.79 ± 0.52
17 | TAATTACACTTTAAAAGTACATATATAATAACATTA [XGTACX_site379] | 8.38 ± 0.26
18 | AAAATAAGCCATATACGTACATACATATATAAATAT [XGTACX_site4197] | 8.57 ± 0.33
19 | CAAACAATTAAACAAACACACATATACATGTATATA [CACACA_site2060] | 8.4 ± 0.66

Row | Sequence | gcPBM binding intensity (ln)
20 | TTCATATTTCATATATGTACTTATGTTCAATATAGT [XGTACX_site3811] | 8.31 ± 0.3
21 | TTTTTTATGTTCAATTGTACATATACATATATATAT [XGTACX_site6013] | 9.36 ± 0.11
22 | GATTTAATAGATACGAGTACAGAAATTGTATACATA [XGTACX_site7563] | 8.7 ± 0.39
23 | TACATATTTTTCTTTTCACACATGGAAAAAAAAGGT [CACACA_site5146] | 8.71 ± 0.23
24 | AATATATTTATTATAACACACACATATATATATTAT [CACACA_site8264] | 8.54 ± 0.39
25 | CCCTTAATTTAAAACACACAAACAAATAAGTTAGTT [CACACA_site3793] | 8.69 ± 0.5
26 | TATTTTTTTTTTCACTGTACATACAACAACAAATAT [XGTACX_site8835] | 8.75 ± 0.55
27 | TATTAATTCATTTTTTTTTTTTTTTTTTTTTTTTTT [CACACA_negctrl_site1215] | 8.84 ± 0.16
28 | ATATATATATATATATATATATATATATATAAGTGG [XGTACX_negctrl_site90] | 9.94 ± 0.35
29 | TTATATGTTTTGTGTACACAATTTATTAAATTAATA [CACACA_site5645] | 8.96 ± 0.38
30 | ATAGGAAAAAGTATTGGTACACATACATATACGTTA [XGTACX_site5819] | 8.77 ± 0.21
31 | ACACAAAAAATTAAGTGTACTCATCAAGAAAAAAAA [XGTACX_site3456] | 8.31 ± 0.55
32 | TATATATTTTTTTCATGTACATATAAATTAATTAAA [XGTACX_site8680] | 8.72 ± 0.36
33 | ATAAAATACCCTGATCTATTACATATTATATTCTGC [GTGCAC_negctrl_site311] | 8.28 ± 0.49
34 | GATTCCTTTAACCCTGCACACATACATACATTTATA [CACACA_site9308] | 9.3 ± 0.4
35 | TAATAATATAATAATACACACTCATTATATATATAA [CACACA_site6045] | 8.18 ± 0.43
36 | TATATTTCTTATTACATACACACATATACATATATG [CACACA_site3202] | 8.71 ± 0.58
37 | ATAGATGCATATTATACACACATATGTAAATACATT [CACACA_site4691] | 8.54 ± 0.3
38 | CCACTATATAAAATCACACATTTATATTATACATAT [CACACA_site4570] | 8.43 ± 0.4

Row | Sequence | gcPBM binding intensity (ln)
39 | AAAAAAAGAAATTAGGTGCATAGCATTAACCGATAA [GTGCAC_site9582] | 8.88 ± 0.13
40 | TTGAAGTTAATAAAAACTTTATACATGAAATTATTT [CACACA_negctrl_site684] | 8.08 ± 0.42
41 | ATAATAGTTAAATGTACACACTAACTACATGGAATA [CACACA_site5753] | 8.6 ± 0.33
42 | TATTGGTAATGTAAATGTACATATAGATATTTACAT [XGTACX_site1922] | 8.36 ± 0.46
43 | TTTATTTTAATTTATTGTACATTGTTATCAAGTGCA [XGTACX_site1110] | 8.68 ± 0.64
44 | ACAAAATATTTTTCTTCACACATCCATTCAACATTT [CACACA_site5886] | 8.96 ± 0.33
45 | ACAAAAAAAAAAAAAATACACACACATAAAAAAAAA [TGCATGCA_negctrl_site333] | 8.4 ± 0.54
46 | AATCAAAACATTAAAAAGAAAAAATATATATATATA [CACACA_negctrl_site366] | 10.2 ± 0.26
47 | TATATATATATATATATTAATAATTAATATAAAAGA [XGTACX_negctrl_site32] | 9.23 ± 1.2
48 | TATAAATGATTAATTTGTACATATTTTACTTAATTG [XGTACX_site5271] | 8.18 ± 0.37
49 | CCATTCAAATTTCGCACACACATACAAAAAAAAAAA [CACACA_site3093] | 8.59 ± 0.42
50 | TTGATGATATCATTTTGTACTTATACGTATTTAAAA [XGTACX_site148] | 8.73 ± 0.5
51 | TAAATAAATAAATATATATATATATATATATATATA [XGTACX_negctrl_site70] | 10.2 ± 0.41
52 | CTTTAAATGATGTAAACACACACATATACATTATTA [CACACA_site9035] | 8.35 ± 0.28
53 | CACATAAAAAAATAAACACACATATGTATATAAATA [CACACA_site7483] | 8.68 ± 0.45
54 | AATGGAAAAATAGGCACACACACATAAATACAGATA [CACACA_site4844] | 9.03 ± 0.64
55 | TAAAAAAAAATAAAAAGTACATATATATATATATAT [XGTACX_site1155] | 10.3 ± 0.46
56 | AGTGCTACTCATGATTGAATAGAGGAAAAGGCGGTG [GTGCAC_negctrl_site49] | 8.49 ± 0.19
